# Results reported in ChEMBL document CHEMBL5606460, “ASAP - DENV-2 NS2B-NS3 protease fluorescence single point” (2024).
# Screen size: about 2,000 compounds; about 110 (5.5%) showed an effect of 50% or more. The list shows a part of the results.
# Biological target: Genome polyprotein (dengue virus type 2) (UniProt P29990)
# [1] = Thailand/16681/1984, Concentration 25.0 uM, Number of replicates 1.0
smiles,measurement,setting,value
COc1cc(C(=O)N[C@@H](C)C(=O)O)nc(N2CCNCC2)n1,inhibition,"Thailand/16681/1984, Concentration 49.5 uM, Number of replicates 2.0, Standard deviation 1.579518897029431 %",-5.46%
same,inhibition,"Thailand/16681/1984, Concentration 99.01 uM, Number of replicates 2.0, Standard deviation 2.2566031293225164 %",-5.38%
same,inhibition,"Thailand/16681/1984, Concentration 198.0 uM, Number of replicates 2.0, Standard deviation 0.022174131351157523 %",-3.27%
Cn1cc(NC(=O)c2ccccc2C(F)(F)F)c(-c2cncnc2)n1,inhibition,"Thailand/16681/1984, Concentration 49.5 uM, Number of replicates 2.0, Standard deviation 1.0537470770996704 %",-3.01%
same,inhibition,"Thailand/16681/1984, Concentration 99.01 uM, Number of replicates 2.0, Standard deviation 0.3950344031913927 %",-1.1%
same,inhibition,"Thailand/16681/1984, Concentration 198.0 uM, Number of replicates 2.0, Standard deviation 3.4896318048296595 %",-2.3%
COc1ccccc1CN(C(=O)C1CCN(c2ccc(C=O)cc2)CC1)C1CC1,inhibition,[1],13.9%
c1ccc(Oc2cccc(CN3CC[C@H](c4c[nH]c5ccccc45)C3)c2)nc1,inhibition,"Thailand/16681/1984, Concentration 49.5 uM, Number of replicates 2.0, Standard deviation 1.2057589164140337 %",1%
same,inhibition,"Thailand/16681/1984, Concentration 99.01 uM, Number of replicates 2.0, Standard deviation 1.4007589396292652 %",2.61%
same,inhibition,"Thailand/16681/1984, Concentration 198.0 uM, Number of replicates 2.0, Standard deviation 2.062519926502942 %",1.89%
CC(C)(COC(=O)c1cccc(F)c1)NC(=O)c1cc(N)cc(Cl)c1,inhibition,"Thailand/16681/1984, Concentration 49.5 uM, Number of replicates 2.0, Standard deviation 2.9102223565882523 %",2.76%
same,inhibition,"Thailand/16681/1984, Concentration 99.01 uM, Number of replicates 2.0, Standard deviation 3.4341693865648852 %",4.65%
same,inhibition,"Thailand/16681/1984, Concentration 198.0 uM, Number of replicates 2.0, Standard deviation 3.020555050969647 %",7.39%
c1ccc2c([C@H]3CCN(Cc4ccon4)C3)c[nH]c2c1,inhibition,"Thailand/16681/1984, Concentration 49.5 uM, Number of replicates 2.0, Standard deviation 1.9476178393933903 %",-2.85%
same,inhibition,"Thailand/16681/1984, Concentration 99.01 uM, Number of replicates 2.0, Standard deviation 2.5164078728535832 %",-2.25%
same,inhibition,"Thailand/16681/1984, Concentration 198.0 uM, Number of replicates 2.0, Standard deviation 2.4110409873352823 %",-1.68%
CC(C)(CO)NC(=O)c1cc(Cl)cc(NC(=O)c2ccc3c(c2)NC(=O)CS3)c1,inhibition,"Thailand/16681/1984, Concentration 49.5 uM, Number of replicates 2.0, Standard deviation 3.127876605906029 %",0.133%
same,inhibition,"Thailand/16681/1984, Concentration 99.01 uM, Number of replicates 2.0, Standard deviation 1.5601810799956624 %",1.68%
same,inhibition,"Thailand/16681/1984, Concentration 198.0 uM, Number of replicates 2.0, Standard deviation 0.7495631561529056 %",4.28%
COC(=O)[C@@H](C)NC(=O)c1cc(OC)nc(N2CCNCC2)n1,inhibition,"Thailand/16681/1984, Concentration 49.5 uM, Number of replicates 2.0, Standard deviation 5.1438793085885886 %",-2.56%
same,inhibition,"Thailand/16681/1984, Concentration 99.01 uM, Number of replicates 2.0, Standard deviation 4.148622532034276 %",-1.91%
same,inhibition,"Thailand/16681/1984, Concentration 198.0 uM, Number of replicates 2.0, Standard deviation 4.004748448377244 %",1.1%
COc1cc(C(=O)NCC2CC2)nc(N2CCNCC2)n1,inhibition,"Thailand/16681/1984, Concentration 49.5 uM, Number of replicates 2.0, Standard deviation 2.873868444891211 %",-2.45%
same,inhibition,"Thailand/16681/1984, Concentration 99.01 uM, Number of replicates 2.0, Standard deviation 2.6541901985408196 %",-0.334%
same,inhibition,"Thailand/16681/1984, Concentration 198.0 uM, Number of replicates 2.0, Standard deviation 1.9095524495454428 %",1.94%
O=C1Nc2ccccc2C[C@]12CCCN2,inhibition,"Thailand/16681/1984, Concentration 49.8 uM, Number of replicates 2.0, Standard deviation 1.0431419184899653 %",-9.22%
same,inhibition,"Thailand/16681/1984, Concentration 99.5 uM, Number of replicates 2.0, Standard deviation 1.491980229847092 %",-6.1%
COc1ccc([C@H](C)NC(=O)C2CCN(c3ccc(C=O)cc3)CC2)cc1,inhibition,[1],12.5%
O=Cc1ccc(N2CCC(C(=O)NCc3cccc(OC(F)F)c3)CC2)cc1,inhibition,[1],13%
COc1cc2c(cc1OC)CN(C(=O)C1CCN(c3ccc(C=O)cc3)CC1)CC2,inhibition,[1],13.9%
CCOC(=O)c1cc(Cn2cc(C3CCNCC3)c(C)n2)on1,inhibition,"Thailand/16681/1984, Concentration 49.5 uM, Number of replicates 2.0, Standard deviation 0.6961838774859187 %",-0.36%
same,inhibition,"Thailand/16681/1984, Concentration 99.01 uM, Number of replicates 2.0, Standard deviation 1.502887560287196 %",-0.752%
same,inhibition,"Thailand/16681/1984, Concentration 198.0 uM, Number of replicates 2.0, Standard deviation 1.2379119200110926 %",0.781%
O=Cc1ccc(N2CCC(C(=O)NCc3ccsc3Br)CC2)cc1,inhibition,[1],10.2%
COc1ccc(NC(=O)C2CCN(c3ccc(C=O)cc3)CC2)c([N+](=O)[O-])c1,inhibition,[1],14.5%
Cc1c(C(=O)NCC(F)(F)c2n[nH]c3c2COCC3)ccc(O)c1NC(=O)c1ccncc1F,inhibition,"Thailand/16681/1984, Concentration 49.5 uM, Number of replicates 2.0, Standard deviation 0.9671482846391245 %",-0.897%
same,inhibition,"Thailand/16681/1984, Concentration 99.01 uM, Number of replicates 2.0, Standard deviation 0.6988285711565531 %",0.173%
same,inhibition,"Thailand/16681/1984, Concentration 198.0 uM, Number of replicates 2.0, Standard deviation 0.7129792701769644 %",2.02%
COc1ccccc1N1CCN(CCCNC(=O)C2CCN(c3ccc(C=O)cc3)CC2)CC1,inhibition,[1],15.3%
O=Cc1ccc(N2CCC(C(=O)NCC3(N4CCOCC4)CCCCC3)CC2)cc1,inhibition,[1],13%
Cc1cc(CO)c2cccc(NC(=O)Cc3csc(Cc4ccccc4)n3)c2n1,inhibition,"Thailand/16681/1984, Concentration 49.95 uM, Number of replicates 2.0, Standard deviation 3.352344146166683 %",22.2%
same,inhibition,"Thailand/16681/1984, Concentration 99.9 uM, Number of replicates 2.0, Standard deviation 10.05500534367407 %",35.6%
COc1cc(NC(=O)C2CCN(c3ccc(C=O)cc3)CC2)ccc1Br,inhibition,[1],12.2%
O=Cc1ccc(N2CCC(C(=O)Nc3cccc(Cl)c3Br)CC2)cc1,inhibition,[1],12.5%
